In the supplement of paper PMC8728848:
This is one part of the list.

Assays:
Assay in all cases: glycan array binding signal (z-score within array); higher = stronger binding
Conditions in all cases: glycan notation: IUPAC condensed, linker removed
[1] = biological target: Fuc(a1-2)[Gal(a1-4)]Gal(b1-4)GlcNAc
Procedure, shortened: (§1)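 Glycan array data were curated from 3228 arrays in the Consortium for Functional Glycomics database and kept only where the protein sequence was available. Glycan names were converted to IUPAC-condensed notation, and columns mapping to the same glycan were averaged. The binding signal is a within-array Z-score, averaged across arrays of the same protein sequence at different concentrations or buffers and across linkers. Negative Z-scores can be read as non-binding.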

[2] = biological target: Fuc(a1-2)[GalNAc(a1-3)]Gal
Procedure, shortened: as §1

[3] = biological target: Fuc(a1-2)[GalNAc(a1-3)]Gal(b1-3)GalNAc(a1-3)[Fuc(a1-2)]Gal(b1-4)GlcNAc
Procedure, shortened: as §1

[4] = biological target: Fuc(a1-2)[GalNAc(a1-3)]Gal(b1-3)GlcNAc
Procedure, shortened: as §1

[5] = biological target: Fuc(a1-2)[GalNAc(a1-3)]Gal(b1-3)GlcNAc(b1-2)Man(a1-3)[Fuc(a1-2)[GalNAc(a1-3)]Gal(b1-3)GlcNAc(b1-2)Man(a1-6)]Man(b1-4)GlcNAc(b1-4)GlcNAc
Procedure, shortened: as §1

[6] = biological target: Fuc(a1-2)[GalNAc(a1-3)]Gal(b1-4)Glc
Procedure, shortened: as §1

[7] = biological target: Fuc(a1-2)[GalNAc(a1-3)]Gal(b1-4)GlcNAc
Procedure, shortened: as §1

[8] = biological target: Fuc(a1-2)[GalNAc(a1-3)]Gal(b1-4)GlcNAc(b1-2)Man(a1-3)[Fuc(a1-2)[GalNAc(a1-3)]Gal(b1-4)GlcNAc(b1-2)Man(a1-6)]Man(b1-4)GlcNAc(b1-4)GlcNAc
Procedure, shortened: as §1

[9] = biological target: Fuc(a1-2)[GalNAc(a1-3)]Gal(b1-4)GlcNAc(b1-3)Gal(b1-4)GlcNAc
Procedure, shortened: as §1

[10] = biological target: Fuc(a1-2)[GalNAc(a1-3)]Gal(b1-4)GlcNAc(b1-3)Gal(b1-4)GlcNAc(b1-3)Gal(b1-4)GlcNAc
Procedure, shortened: as §1

[11] = biological target: Fuc(a1-2)[GalNAc(a1-3)]Gal(b1-4)[Fuc(a1-3)]GlcNAc
Procedure, shortened: as §1

[12] = biological target: Fuc(a1-2)[GalNAc(a1-4)]Gal(b1-4)GlcNAc
Procedure, shortened: as §1

[13] = biological target: Fuc(a1-2)[GalNAc(b1-3)]Gal
Procedure, shortened: as §1

Fuc(a1-3)GlcNAc = biological target: Fuc(a1-3)GlcNAc
Procedure, shortened: as §1

[14] = biological target: Fuc(a1-3)[Gal(b1-4)]Glc6S
Procedure, shortened: as §1

[15] = biological target: Fuc(a1-3)[Gal(b1-4)]GlcNAc
Procedure, shortened: as §1

[16] = biological target: Fuc(a1-3)[Gal(b1-4)]GlcNAc(b1-2)Man(a1-3)[Fuc(a1-3)[Gal(b1-4)]GlcNAc(b1-2)Man(a1-6)]Man(b1-4)GlcNAc(b1-4)GlcNAc
Procedure, shortened: as §1

[17] = biological target: Fuc(a1-3)[Gal(b1-4)]GlcNAc(b1-3)Gal(b1-3)[Fuc(a1-4)]GlcNAc
Procedure, shortened: as §1

[18] = biological target: Fuc(a1-3)[Gal(b1-4)]GlcNAc(b1-3)GalNAc
Procedure, shortened: as §1

[19] = biological target: Fuc(a1-3)[Gal(b1-4)]GlcNAc(b1-4)Gal(b1-4)[Fuc(a1-3)]GlcNAc
Procedure, shortened: as §1

[20] = biological target: Fuc(a1-3)[Gal(b1-4)]GlcNAc(b1-4)Gal(b1-4)[Fuc(a1-3)]GlcNAc(b1-4)Gal(b1-4)[Fuc(a1-3)]GlcNAc
Procedure, shortened: as §1

[21] = biological target: Fuc(a1-3)[Gal(b1-4)]GlcNAc(b1-6)[Gal(b1-3)GlcNAc(b1-3)]Gal(b1-4)Glc
Procedure, shortened: as §1

[22] = biological target: Fuc(a1-3)[Gal(b1-4)]GlcNAc6S
Procedure, shortened: as §1

[23] = biological target: Fuc(a1-3)[Gal3S(b1-4)]GlcNAc
Procedure, shortened: as §1

[24] = biological target: Fuc(a1-3)[Gal3S(b1-4)]GlcNAc6S
Procedure, shortened: as §1

[25] = biological target: Fuc(a1-3)[GalNAc(b1-4)]GlcNAc
Procedure, shortened: as §1

Fuc(a1-4)GlcNAc = biological target: Fuc(a1-4)GlcNAc
Procedure, shortened: as §1

Fuc(b1-3)GlcNAc = biological target: Fuc(b1-3)GlcNAc
Procedure, shortened: as §1

Gal(a1-2)Gal = biological target: Gal(a1-2)Gal
Procedure, shortened: as §1

Gal(a1-3)Gal = biological target: Gal(a1-3)Gal
Procedure, shortened: as §1

Gal(a1-3)Gal(b1-3)GlcNAc = biological target: Gal(a1-3)Gal(b1-3)GlcNAc
Procedure, shortened: as §1

[26] = biological target: Gal(a1-3)Gal(b1-3)GlcNAc(b1-2)Man(a1-3)[Gal(a1-3)Gal(b1-3)GlcNAc(b1-2)Man(a1-6)]Man(b1-4)GlcNAc(b1-4)GlcNAc
Procedure, shortened: as §1

[27] = biological target: Gal(a1-3)Gal(b1-3)[Fuc(a1-4)]GlcNAc(b1-2)Man(a1-3)[Gal(a1-3)Gal(b1-3)[Fuc(a1-4)]GlcNAc(b1-2)Man(a1-6)]Man(b1-4)GlcNAc(b1-4)GlcNAc
Procedure, shortened: as §1

Gal(a1-3)Gal(b1-4)Glc = biological target: Gal(a1-3)Gal(b1-4)Glc
Procedure, shortened: as §1

Gal(a1-3)Gal(b1-4)GlcNAc = biological target: Gal(a1-3)Gal(b1-4)GlcNAc
Procedure, shortened: as §1

[28] = biological target: Gal(a1-3)Gal(b1-4)GlcNAc(b1-3)GalNAc
Procedure, shortened: as §1

[29] = biological target: Gal(a1-3)Gal(b1-4)[Fuc(a1-3)]GlcNAc
Procedure, shortened: as §1

[30] = biological target: Gal(a1-3)Gal(b1-4)[Fuc(a1-3)]GlcNAc(b1-2)Man(a1-3)[Gal(a1-3)Gal(b1-4)[Fuc(a1-3)]GlcNAc(b1-2)Man(a1-6)]Man(b1-4)GlcNAc(b1-4)GlcNAc
Procedure, shortened: as §1

B1: Lmo1413 (Listeria monocytogenes), Q8Y783 (protein)
chain: MKHAKKSLFTFIIFMTILSITFNPFSAKAAPLMLNLPAPQVDQLYIGDDYITGKLQQEVPMHYPGNAAYVLFNNKQYNITDYTVENDVNFRLKLPKTLEAGDTLNYFTITGNVLDPVAYPGQESYKLAGPFSPIEKANIQVNYVDETNQTLATSDTLSGKLGETYTTSPKAIDGYQVKETPTNATGTYTTNTETIQINYVYEKTAVEGANVSVEYINEATNESIAPTETLSGKIGTTFQAEVKEIDGYELSQVPSNQSGTYTDQTQSVIFKYKKITTPDEVAKDVTVTYKDTKGNQLADPVILKGDIGSTFETEAKSFKGYKLTKTPSNHSSVFTSDSQEVEYVYSKDDAVITPPVTPVNPDKPIINPVKPVNPATSTVPNKNISKKNTTKTVNQTGKTSTALQLPKTGDSENNLPLIIGVSLLISGVYIFTTRRKRVK
[1]
  glycan array binding signal (z-score): 0.276
[2]
  glycan array binding signal (z-score): -0.095
[3]
  glycan array binding signal (z-score): -0.179
[4]
  glycan array binding signal (z-score): -0.205
[5]
  glycan array binding signal (z-score): -0.212
[6]
  glycan array binding signal (z-score): -0.122
[7]
  glycan array binding signal (z-score): -0.15
[8]
  glycan array binding signal (z-score): -0.11
[9]
  glycan array binding signal (z-score): 0.005
[10]
  glycan array binding signal (z-score): 0.245
[11]
  glycan array binding signal (z-score): 0.533
[12]
  glycan array binding signal (z-score): 0.025
[13]
  glycan array binding signal (z-score): -0.022
Fuc(a1-3)GlcNAc
  glycan array binding signal (z-score): -0.211
[14]
  glycan array binding signal (z-score): -0.136
[15]
  glycan array binding signal (z-score): -0.118
[16]
  glycan array binding signal (z-score): -0.204
[17]
  glycan array binding signal (z-score): -0.245
[18]
  glycan array binding signal (z-score): -0.161
[19]
  glycan array binding signal (z-score): 0.175
[20]
  glycan array binding signal (z-score): 0.131
[21]
  glycan array binding signal (z-score): -0.263
[22]
  glycan array binding signal (z-score): -0.231
[23]
  glycan array binding signal (z-score): -0.186
[24]
  glycan array binding signal (z-score): -0.223
[25]
  glycan array binding signal (z-score): -0.197
Fuc(a1-4)GlcNAc
  glycan array binding signal (z-score): -0.225
Fuc(b1-3)GlcNAc
  glycan array binding signal (z-score): -0.149
Gal(a1-2)Gal
  glycan array binding signal (z-score): -0.129
Gal(a1-3)Gal
  glycan array binding signal (z-score): -0.219
Gal(a1-3)Gal(b1-3)GlcNAc
  glycan array binding signal (z-score): -0.199
[26]
  glycan array binding signal (z-score): -0.222
[27]
  glycan array binding signal (z-score): 0.292
Gal(a1-3)Gal(b1-4)Glc
  glycan array binding signal (z-score): -0.205
Gal(a1-3)Gal(b1-4)GlcNAc
  glycan array binding signal (z-score): -0.229
[28]
  glycan array binding signal (z-score): -0.254
[29]
  glycan array binding signal (z-score): -0.228
[30]
  glycan array binding signal (z-score): 0.065
